The whole screen tested about 71,000 compounds, of which about 1,800 (2.5%) were called active. The shares of active, inactive and inconclusive entries below differ from those in the screen. Calls come from the whole dose curve; as a rule, active = well fitted activation curve with a large enough effect in the signal ratio, with a control signal flat (not every such curve was filed as active); inconclusive = small, poorly fitted or top-dose-only effect, or effect the other way, or a change in a side signal; inactive = flat fitted curve, though single readings scatter; the % refers to the signal ratio. A potency beside an inconclusive call is a rough fit, not a confirmed value.
Experiment: Cell signaling CRE-BLA (Fsk stim); for activity change, negative = inhibition: % of control where 0% means no effect
Details: CHO CRE-bla reporter (cAMP response element driving beta-lactamase), forskolin EC10, beta-lactamase ratio; activity change, negative = inhibition: at 38.2 µM (top of the series) unless noted
In short: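 Forskolin analogue NKH 477 at EC10 stimulated CRE-driven beta-lactamase in CHO cells alongside compound dilution series. Beta-lactamase was measured with CCF4, excitation 405 nm, emission ratio 460/530 nm.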
In the case of O=C(NCc1ccccn1)C1CCCN(Cc2cnn(-c3ccccc3)c2-n2cccc2)C1 (centres undefined), the activity change, negative = inhibition is reported as inconclusive: -4.21%.
With O=C(Nc1ccccn1)Nc1cccs1 the activity change, negative = inhibition was “inactive”.
In the case of Cc1ccc(-c2nnc(SC(C)C#N)n2N)cc1 (centres undefined), the Potency is reported as inconclusive: 2 µM [falling, partial curve].
For Cn1c(=O)c2cc(S(=O)(=O)NCCC(=O)NCC3CCCO3)ccc2n(C)c1=O (centres undefined), the activity change, negative = inhibition was inconclusive: -15.7%.
For O=C(Cn1c(=O)sc2ccccc21)Nc1ccc(S(=O)(=O)N2CCCC2)cc1, the activity change, negative = inhibition was inconclusive: -11.7%.
For O=C(CCn1c(=O)c2ccccc2n(Cc2cc(=O)n3ccccc3n2)c1=O)NCc1ccco1, the activity change, negative = inhibition was inconclusive: -1.87%.
With Cc1ccc(-c2noc(CN(C(=O)c3cccc(Br)c3)C(C)C)n2)cc1 the activity change, negative = inhibition was inconclusive: -2.61%.
In the case of COc1ccc(NC(=O)CSc2nnc(Cc3cccn3C)n2-c2ccc(C)cc2)cc1OC, the activity change, negative = inhibition is reported as inconclusive: -6.67%.
With CC1(C)OCC(CSC2=C(SCC3COC(C)(C)O3)C(=O)c3ncccc3C2=O)O1 (centres undefined) the activity change, negative = inhibition was “inactive”.
For COc1ccc(-c2nc3cnc(N4CCNCC4)nc3n(C)c2=O)cc1, the Potency was inconclusive: 0.794 µM [rising, partial curve].
In the case of O=C(CCn1nc(-c2ccc(Cl)cc2)ccc1=O)NCCCN1CCCCCC1, the activity change, negative = inhibition is reported as inconclusive: 8.31%.
For COC(=O)c1cc(OC)c(OC)cc1-n1cnc2cc(OC)c(OC)cc2c1=O, the Potency was inconclusive: 12.6 µM [rising, single point].
With COc1ccccc1NC(=O)c1sc2nc(-c3ccco3)ccc2c1N the activity change, negative = inhibition was inconclusive: 16.5%.
In the case of CCCCn1c(SCC(=O)Nc2cccc(OC)c2)nc2ccc(N3CCOCC3)cc2c1=O, the Potency is reported as inconclusive: 12.6 µM [rising, single point].
With C/C=C/COC(=O)c1[nH]c2c(c1C)C(=O)CC(c1ccco1)C2 (centres undefined) the Potency was active: 1.26 µM.
With CCCCCCN(C(=O)CCCCCN1C(=O)NC(c2ccc(Cl)cc2)C(C(=O)OCc2ccccc2)=C1C)C(C(=O)NCCCC)c1ccc(OCC(=O)OC)c(C(=O)OC)c1 (centres undefined) the activity change, negative = inhibition was “inactive”.
In the case of COc1ccc(-n2c(NC(=O)c3ccco3)c(C#N)c3nc4ccccc4nc32)cc1, the Potency is reported as inconclusive: 3.98 µM [rising, full curve].
In the case of Cc1ccc2cc(CN(CCN3CCOCC3)Cc3nnnn3Cc3ccco3)c(=O)[nH]c2c1C, the activity change, negative = inhibition is reported as “inactive”.
For CC(=O)Nc1ccc(S(=O)(=O)N2CCN(c3nc(NC4CCCC4)c4ccccc4n3)CC2)cc1, the Potency was inconclusive: 5.01 µM [rising, single point].
With Brc1cccc(-c2n[nH]c(-c3ccccc3)n2)c1 the activity change, negative = inhibition was “inactive”.
In the case of CN(CC(=O)Nc1ccc(F)c(F)c1)S(=O)(=O)c1cccc2nsnc12, the activity change, negative = inhibition is reported as inconclusive: -0.0381%.
In the case of COc1ccc(-n2ncc3c(NCc4cccs4)ncnc32)cc1, the Potency is reported as inconclusive: 12.6 µM [rising, partial curve].
For CCOC(=O)c1ccc(N)cc1, the activity change, negative = inhibition was “inactive”.
For CNC(=O)[C@H](C)/C=C/C(NC(=O)OCc1ccccc1)c1ccc(C(=O)OC)cc1 (some centres undefined), the activity change, negative = inhibition was “inactive”.
For CC1(C)CC(=O)CC(=Nc2ccc3[nH]c(=O)[nH]c3c2)C1, the activity change, negative = inhibition was inconclusive: -3.96%.
In the case of O=C(CSc1nc(-c2ccco2)cc(C(F)(F)F)n1)Nc1ccc(C(=O)N2CCCCC2)cc1, the activity change, negative = inhibition is reported as inconclusive: 25.6%.
In the case of CCOc1ccc(S(=O)(=O)Nc2nc3ccccc3nc2N2CCN(C)CC2)cc1, the activity change, negative = inhibition is reported as “inactive”.
In the case of Cc1ccc(-c2ccc(=O)n(CC(=O)Nc3cccc(C(=O)N4CCN(C)CC4)c3)n2)cc1, the activity change, negative = inhibition is reported as inconclusive: -4.04%.
With Cn1c(C(C#N)C(=O)Cc2cccc3ccccc23)nc2ccccc21 (centres undefined) the activity change, negative = inhibition was inconclusive: 5.33%.
With CN(Cc1ccco1)c1nc(-c2cccnc2)nc2ccccc12 the Potency was active: 2.51 µM.
For CCCc1nc2ccccc2c(C(=O)OCc2nnc(-c3cc(OC)c(OC)c(OC)c3)o2)c1CC, the Potency was active: 0.501 µM.
For CC(C)CC(NC(=O)C1CCC(C)CC1)C(=O)N1CCN(c2ccccn2)CC1 (centres undefined), the activity change, negative = inhibition was “inactive”.
In the case of COc1ccc2c(c1)CCc1c(C(=O)Nc3ccn(Cc4ccc(C)cc4)n3)noc1-2, the activity change, negative = inhibition is reported as inconclusive: 18.3%.
For CCOC(=O)c1sc(Nc2nc3c(OC)cccc3s2)nc1C, the Potency was active: 10 µM.
For CSc1nsc(SC)c1NC(=O)Nc1ccccn1, the Potency was inconclusive: 0.0631 µM [falling, full curve, poor fit].
For COc1ccccc1-c1c(C)nn2c(C)c(C(C)=O)cnc12, the Potency was inconclusive: 10 µM [rising, partial curve].
For Cc1ccc(NC(=O)NCC(c2cccnc2)N2CCOCC2)cc1 (centres undefined), the activity change, negative = inhibition was inconclusive: -2.86%.
In the case of CCn1c2ccccc2c2nn(C)c(=N)nc21, the Potency is reported as inconclusive: 10 µM [falling, single point].
In the case of CCCC(=O)c1ccc(N2CCN(C(=O)c3ccccc3Br)CC2)c(F)c1, the Potency is reported as inconclusive: 25.1 µM [falling, single point].
For Cc1ccc2cc(CN(CC3CCCO3)S(=O)(=O)c3c(C)ccc4nsnc34)c(=O)[nH]c2c1 (centres undefined), the activity change, negative = inhibition was inconclusive: 11.6% [cytotoxic].
In the case of COc1ccc(CCNC2CC(=O)N(CCc3ccccc3)C2=O)cc1OC (centres undefined), the activity change, negative = inhibition is reported as inconclusive: -10.8% [at 7.6 µM].
With C=C[C@@]1(C)CC(=O)[C@@]2(O)[C@@]3(C)[C@H](O)CCC(C)(C)[C@@H]3[C@H](O)[C@H](OC(C)=O)[C@]2(C)O1 the Potency was inconclusive: 0.316 µM [rising, full curve].
For COc1ccc(CC(=O)Nc2ccc(-c3nnc(-c4ccccc4)o3)cc2)cc1OC, the activity change, negative = inhibition was “inactive”.
In the case of CCc1ccc2[nH]c(=O)c(CN(Cc3ccccc3OC)Cc3nnnn3Cc3ccco3)cc2c1, the activity change, negative = inhibition is reported as “inactive”.
With CCNc1ncc2nc(C)c(=O)n(CCC#N)c2n1 the Potency was active: 12.6 µM.
With CCCN(CCC)S(=O)(=O)c1ccc(C(=O)Nc2nnc(-c3cc(OC)cc(OC)c3)o2)cc1 the Potency was inconclusive: 3.98 µM [falling, single point].
In the case of COC(=O)c1c(-c2cccc(C)c2)csc1N, the Potency is reported as inconclusive: 10 µM [rising, single point].
With Nc1nc2ccc(S(=O)(=O)c3ccc4nc(N)sc4c3)cc2s1 the activity change, negative = inhibition was “inactive”.
With COc1ccc(-c2cn3cc(Cl)ccc3n2)cc1OC the activity change, negative = inhibition was inconclusive: 27.7%.

Source: PubChem BioAssay AID662 (National Center for Advancing Translational Sciences (NCATS), 2007)
Potency is the fitted concentration of half-maximal effect; tags give direction and shape of the fitted curve.
